Assay results as given in PubChem BioAssay (NCI).
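TGI marks complete inhibition of growth.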 Certain results were filed several times, with different values. This list holds those alone. An entry can have further records. The records of an entry repeat one measurement (runs, samples, wells, individuals or studies). Records carry a tag for their origin. The letters are not those of the source and start again with each entry.

Test system: MOLT-4 leukemia
Experiment: NCI-60 cell line screen, 384-well format

Cn1cc(-c2nc(N[C@@H]3CCCC[C@@H]3N)c(F)c3c2C(=O)NC3)cn1
TGI: 849 nM [sample A, 1 test] and 10.8 µM [sample B, 1 test]
